# According to the supplement of paper PMC8728848:
# The other results are listed elsewhere or left out.
# B1: PX9961C-bth-497-22-497 (Bacteroides thetaiotaomicron) (protein)
# chain: DWLDLNTTSSVETGQAIVTLDDAQIALNGIYRLASGHSYYGDNYWYYGDCRAADVQARITKGDGKRVSPYYEYNVLASDNLNIVLPWNTVYKVIRQTNNLIQKIESGSIQSSDTKELNRIKSEALVMRGLSLFNLTRLFGMPYTNDKGASLGVPIETSPSDPTHKPSRSTVAQCYEQVVSDMSNALSGLRQETSNGYINYWAAQALLSRVYLNMGEYQKAYDAATDVIKNNGGRYQLYSYEEYPNVWGQDFQSESLFELYITLSEPSGGTGGEGAPMVYANEATVDWNNLILSEDFLNLLNEDPKDVRHCLTKESVIENNTGLPAAAMHEKVYLAKFPGKTGDDPKTNNICIIRLSEVYLNAAEAGLKKGTDIEEAQGYLNDIISRRTTDTSQQVSTETFTLDRILKERRKELVGEGEVFYDYLRNGLAIERKGSWHLETLKASNAQKIEATDLRIALPIPQSEIDANPNIQQNPR
# Columns and labels:
# Assay in all cases: glycan array binding signal (z-score within array); higher = stronger binding
# Settings in all cases: glycan notation: IUPAC condensed, linker removed
# [1] = biological target: GalNAc3S(b1-4)[Fuc(a1-3)]GlcNAc
# How it was run: (§1)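 Glycan array data were curated from 3228 arrays in the Consortium for Functional Glycomics database and kept only where the protein sequence was available. Glycan names were converted to IUPAC-condensed notation, and columns mapping to the same glycan were averaged. The binding signal is a within-array Z-score, averaged across arrays of the same protein sequence at different concentrations or buffers and across linkers. Negative Z-scores can be read as non-binding.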
# [2] = biological target: GalNAc4S6S(b1-4)GlcNAc
# How it was run: as §1
# [3] = biological target: GalNAc6S(b1-4)GlcNAc
# How it was run: as §1
# [4] = biological target: Glc(a1-4)Glc
# How it was run: as §1
# [5] = biological target: Glc(a1-4)Glc(a1-4)Glc(a1-4)Glc
# How it was run: as §1
# [6] = biological target: Glc(a1-6)Glc(a1-6)Glc
# How it was run: as §1
# [7] = biological target: Glc(a1-6)Glc(a1-6)Glc(a1-6)Glc
# How it was run: as §1
# [8] = biological target: Glc(b1-4)Glc
# How it was run: as §1
# [9] = biological target: Glc(b1-6)Glc
# How it was run: as §1
# [10] = biological target: GlcA(b1-3)Gal
# How it was run: as §1
# [11] = biological target: GlcA(b1-3)GlcNAc
# How it was run: as §1
# [12] = biological target: GlcA(b1-6)Gal
# How it was run: as §1
# [13] = biological target: GlcA3S(b1-3)Gal(b1-4)GlcNAc(b1-2)Man
# How it was run: as §1
# [14] = biological target: GlcA3S(b1-3)Gal(b1-4)GlcNAc(b1-3)Gal(b1-4)Glc
# How it was run: as §1
# [15] = biological target: GlcNAc(a1-3)Gal(b1-4)GlcNAc
# How it was run: as §1
# [16] = biological target: GlcNAc(a1-4)Gal(b1-3)GlcNAc
# How it was run: as §1
# [17] = biological target: GlcNAc(a1-4)Gal(b1-4)GalNAc
# How it was run: as §1
# [18] = biological target: GlcNAc(a1-4)Gal(b1-4)GlcNAc
# How it was run: as §1
# [19] = biological target: GlcNAc(a1-4)Gal(b1-4)GlcNAc(b1-3)Gal(b1-4)Glc
# How it was run: as §1
# [20] = biological target: GlcNAc(a1-4)Gal(b1-4)GlcNAc(b1-3)Gal(b1-4)GlcNAc
# How it was run: as §1
# [21] = biological target: GlcNAc(a1-4)Gal(b1-4)GlcNAc(b1-3)Gal(b1-4)GlcNAc(b1-3)Gal(b1-4)GlcNAc
# How it was run: as §1
# [22] = biological target: GlcNAc(a1-4)Gal(b1-4)GlcNAc(b1-3)Gal(b1-4)[Fuc(a1-3)]GlcNAc(b1-3)Gal(b1-4)[Fuc(a1-3)]GlcNAc
# How it was run: as §1
# [23] = biological target: GlcNAc(a1-6)Gal(b1-4)GlcNAc
# How it was run: as §1
# [24] = biological target: GlcNAc(b1-2)Gal(b1-3)GalNAc
# How it was run: as §1
# [25] = biological target: GlcNAc(b1-2)Man(a1-3)[GlcNAc(b1-2)Man(a1-6)]Man(b1-4)GlcNAc(b1-4)GlcNAc
# How it was run: as §1
# [26] = biological target: GlcNAc(b1-2)Man(a1-3)[GlcNAc(b1-2)Man(a1-6)]Man(b1-4)GlcNAc(b1-4)[Fuc(a1-6)]GlcNAc
# How it was run: as §1
# [27] = biological target: GlcNAc(b1-2)Man(a1-3)[GlcNAc(b1-4)][GlcNAc(b1-2)Man(a1-6)]Man(b1-4)GlcNAc(b1-4)GlcNAc
# How it was run: as §1
# [28] = biological target: GlcNAc(b1-2)Man(a1-3)[GlcNAc(b1-4)][GlcNAc(b1-2)Man(a1-6)]Man(b1-4)GlcNAc(b1-4)[Fuc(a1-6)]GlcNAc
# How it was run: as §1
# [29] = biological target: GlcNAc(b1-2)[GlcNAc(b1-4)]Man(a1-3)[GlcNAc(b1-2)Man(a1-6)]Man(b1-4)GlcNAc(b1-4)GlcNAc
# How it was run: as §1
# [30] = biological target: GlcNAc(b1-2)[GlcNAc(b1-4)]Man(a1-3)[GlcNAc(b1-4)][GlcNAc(b1-2)Man(a1-6)]Man(b1-4)GlcNAc(b1-4)GlcNAc
# How it was run: as §1
# [31] = biological target: GlcNAc(b1-2)[GlcNAc(b1-4)]Man(a1-3)[GlcNAc(b1-4)][GlcNAc(b1-2)[GlcNAc(b1-6)]Man(a1-6)]Man(b1-4)GlcNAc(b1-4)GlcNAc
# How it was run: as §1
# [32] = biological target: GlcNAc(b1-2)[GlcNAc(b1-4)]Man(a1-3)[GlcNAc(b1-4)][GlcNAc(b1-2)[GlcNAc(b1-6)]Man(a1-6)]Man(b1-4)GlcNAc(b1-4)[Fuc(a1-6)]GlcNAc
# How it was run: as §1
# [33] = biological target: GlcNAc(b1-2)[GlcNAc(b1-6)]Man(a1-6)[GlcNAc(b1-2)Man(a1-3)]Man(b1-4)GlcNAc(b1-4)GlcNAc
# How it was run: as §1
# [34] = biological target: GlcNAc(b1-2)[GlcNAc(b1-6)]Man(a1-6)[GlcNAc(b1-2)Man(a1-3)]Man(b1-4)GlcNAc(b1-4)[Fuc(a1-6)]GlcNAc
# How it was run: as §1
# [35] = biological target: GlcNAc(b1-2)[GlcNAc(b1-6)]Man(a1-6)[GlcNAc(b1-4)][GlcNAc(b1-2)Man(a1-3)]Man(b1-4)GlcNAc(b1-4)GlcNAc
# How it was run: as §1
# [36] = biological target: GlcNAc(b1-3)Fuc
# How it was run: as §1
# [37] = biological target: GlcNAc(b1-3)Gal
# How it was run: as §1
# [38] = biological target: GlcNAc(b1-3)Gal(b1-3)GalNAc
# How it was run: as §1
binder,measurement,setting,value
B1,glycan array binding signal (z-score),[1],-0.346
same,glycan array binding signal (z-score),[2],-0.133
same,glycan array binding signal (z-score),[3],0.75
same,glycan array binding signal (z-score),[4],-0.065
same,glycan array binding signal (z-score),[5],-0.235
same,glycan array binding signal (z-score),[6],-0.145
same,glycan array binding signal (z-score),[7],-0.59
same,glycan array binding signal (z-score),[8],-0.512
same,glycan array binding signal (z-score),[9],-0.561
same,glycan array binding signal (z-score),[10],-0.379
same,glycan array binding signal (z-score),[11],0.671
same,glycan array binding signal (z-score),[12],0.546
same,glycan array binding signal (z-score),[13],-0.629
same,glycan array binding signal (z-score),[14],-0.438
same,glycan array binding signal (z-score),[15],-0.64
same,glycan array binding signal (z-score),[16],-0.087
same,glycan array binding signal (z-score),[17],-0.269
same,glycan array binding signal (z-score),[18],-0.048
same,glycan array binding signal (z-score),[19],-0.287
same,glycan array binding signal (z-score),[20],-0.309
same,glycan array binding signal (z-score),[21],0.15
same,glycan array binding signal (z-score),[22],0.323
same,glycan array binding signal (z-score),[23],0.101
same,glycan array binding signal (z-score),[24],-0.409
same,glycan array binding signal (z-score),[25],-0.317
same,glycan array binding signal (z-score),[26],-0.706
same,glycan array binding signal (z-score),[27],-0.561
same,glycan array binding signal (z-score),[28],0.293
same,glycan array binding signal (z-score),[29],-0.118
same,glycan array binding signal (z-score),[30],-0.464
same,glycan array binding signal (z-score),[31],-0.101
same,glycan array binding signal (z-score),[32],-0.102
same,glycan array binding signal (z-score),[33],-0.276
same,glycan array binding signal (z-score),[34],0.069
same,glycan array binding signal (z-score),[35],-0.383
same,glycan array binding signal (z-score),[36],0.476
same,glycan array binding signal (z-score),[37],-1.04
same,glycan array binding signal (z-score),[38],0.356
